Laboratory results reported in PMC4336329 (PLoS ONE, 2015).
The campaign covered roughly 310,000 compounds. About 2,200 (0.71%) showed an effect of 50% or more. Effects have a minus sign here. The list shows a part of the results.

target: human ether-à-go-go-related gene (hERG) potassium channel (human, UniProt Q12809); assay: primary screen, population patch clamp on CHO cells stably expressing hERG
Sequence (Q12809 whole entry, looked up): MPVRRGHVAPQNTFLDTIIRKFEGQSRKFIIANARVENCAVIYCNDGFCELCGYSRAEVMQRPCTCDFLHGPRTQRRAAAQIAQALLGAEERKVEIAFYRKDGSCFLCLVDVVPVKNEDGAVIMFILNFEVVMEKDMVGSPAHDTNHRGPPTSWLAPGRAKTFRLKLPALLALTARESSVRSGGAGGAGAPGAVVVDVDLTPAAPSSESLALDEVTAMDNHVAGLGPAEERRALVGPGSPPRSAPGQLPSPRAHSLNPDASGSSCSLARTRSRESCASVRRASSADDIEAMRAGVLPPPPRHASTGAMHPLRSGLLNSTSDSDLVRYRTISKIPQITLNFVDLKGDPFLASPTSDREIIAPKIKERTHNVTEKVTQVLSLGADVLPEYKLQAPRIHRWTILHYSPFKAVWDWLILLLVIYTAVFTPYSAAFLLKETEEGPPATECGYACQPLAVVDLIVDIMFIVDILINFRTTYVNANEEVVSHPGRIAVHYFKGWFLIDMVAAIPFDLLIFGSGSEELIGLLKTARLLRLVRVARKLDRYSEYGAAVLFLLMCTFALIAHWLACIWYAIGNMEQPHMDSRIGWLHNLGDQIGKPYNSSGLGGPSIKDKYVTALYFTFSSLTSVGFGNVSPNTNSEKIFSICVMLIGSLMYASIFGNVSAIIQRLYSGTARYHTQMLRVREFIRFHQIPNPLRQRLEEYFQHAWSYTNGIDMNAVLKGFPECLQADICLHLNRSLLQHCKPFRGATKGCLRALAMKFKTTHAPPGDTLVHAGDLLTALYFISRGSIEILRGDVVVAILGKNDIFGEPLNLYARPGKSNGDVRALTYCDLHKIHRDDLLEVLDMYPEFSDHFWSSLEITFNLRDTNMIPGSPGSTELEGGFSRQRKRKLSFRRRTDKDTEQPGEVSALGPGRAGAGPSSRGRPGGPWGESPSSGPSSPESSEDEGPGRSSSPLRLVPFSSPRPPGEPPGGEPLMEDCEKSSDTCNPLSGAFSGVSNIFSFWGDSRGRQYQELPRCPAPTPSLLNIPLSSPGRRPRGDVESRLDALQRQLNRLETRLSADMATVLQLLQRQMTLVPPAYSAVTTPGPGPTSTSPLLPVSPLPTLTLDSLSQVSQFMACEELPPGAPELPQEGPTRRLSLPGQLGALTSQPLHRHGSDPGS

Row | SMILES | hERG current change (%, negative = inhibition) at 1uM [%]
1 | CC1(C)Oc2ccc3ccc(=O)oc3c2/C(=C/N)C1=O | 11.7
2 | O=C(NCC(=O)N(c1ccc(F)cc1)C(C(=O)NC1CCCC1)c1ccncc1)c1ccco1 (stereo not drawn) | 16.8
3 | CCn1cc([N+](=O)[O-])c(C(=O)Nc2cc(C)on2)n1 | 1.32
4 | CCOC(=O)C1(CCCCCCOc2ccc(Cl)cc2)CO1 (stereo not drawn) | 4.14
5 | COc1ccc2nc(C)cc(SCC(NC(C)=O)C(=O)OC(C)C)c2c1 (stereo not drawn) | 0.771
6 | COc1nc(NC(=O)c2ccc(F)cc2)nc(OC)c1-c1ccccc1 | 12
7 | C1=C(c2ccccc2)Nc2ccccc2N=C1c1ccccc1 | 4.22
8 | CCOC(=O)C(CCCCCCP(=O)(c1ccccc1)c1ccccc1)NC(C)=O (stereo not drawn) | 8.32
9 | Cc1ccc(CSc2nnc(NC(=O)C3COc4ccccc4O3)s2)cc1 (stereo not drawn) | 18.7
10 | COC(=O)c1cc(Br)c(=O)n(-c2nccs2)c1 | 2.77
11 | CC(C)=CCN1CCN(Cc2ccc3nsnc3c2)CC1CCO (stereo not drawn) | 4.93
12 | O=C(O)/C=C/c1ccccc1[N+](=O)[O-] | 16.9
13 | COc1ccccc1OC(C)C(=O)O (stereo not drawn) | 12.3
14 | FC(F)(F)c1cccc(Cc2noc(CN3CCC(c4ccncc4)CC3)n2)c1 | 1.38
15 | COC(=O)c1cc(-c2cccs2)[nH]n1 | 11.7
16 | O=C(CSc1nnc2ncccn12)Nc1cccc2ccccc12 | 7.05
17 | Cc1ccc(-c2nc3ncccc3o2)cc1NC(=O)c1ccc([N+](=O)[O-])o1 | -8.08
18 | CC(C)(C)C(=O)N1CCN(c2ccc(NC(=O)c3ccc([N+](=O)[O-])o3)cc2)CC1 | 15.1
19 | CCNS(=O)(=O)c1ccc(CCC(=O)NCc2cccnc2)cc1 | 14.1
20 | CCOc1ccc(/C=C/C(=O)Oc2ccccc2)cc1 | 19.1
21 | Cc1ccc(N(CCCCN2C(=O)c3ccccc3C2=O)C(=O)c2cccc([N+](=O)[O-])c2)cc1 | -10.9
22 | COc1cc(NC(=O)CC(C)S(=O)(=O)c2ccc3c(c2)NC(=O)CO3)cc(OC)c1OC (stereo not drawn) | 6.08
23 | COc1ccc(C(NC(=O)c2ccc(-c3ccccc3)cc2)c2ccccc2)cc1 (stereo not drawn) | 1.43

Row | SMILES | hERG current change (%, negative = inhibition) at 1uM [%]
24 | O=C(Nc1cc(C(F)(F)F)ccc1-n1cncn1)c1ccc(Cl)cc1 | 2.51
25 | CCOc1cc(S(=O)(=O)NC2CC(C)(C)NC(C)(C)C2)ccc1F | 5.83
26 | CC1CCCC(C)N1C(=O)COC(=O)CCC1CCCC1 (stereo not drawn) | 9.29
27 | Cc1nn2c(N3CCN(C4CCCC4)CC3)cc(C(C)(C)C)nc2c1-c1ccccc1 | -1.17
28 | CCOC(=O)c1c(C)sc2c1N(C(=O)CCl)c1cc(Cl)ccc1S2 | 1.94
29 | CC(CNC(=O)c1ccco1)NC(=O)c1ccco1 (stereo not drawn) | 13.5
30 | CC(NC(=O)c1ccc(NC(=O)CC2SC(N3CCCC3)=NC2=O)cc1)c1ccccc1 (stereo not drawn) | 12.8
31 | COCC(C)n1c(C)cc(C(=O)CN2C(=O)NC(Cc3c[nH]c4ccccc34)C2=O)c1C (stereo not drawn) | 18.5
32 | CC(C)CN(C(=O)COC(=O)c1ccccc1NCc1ccco1)c1c(N)n(Cc2ccccc2)c(=O)[nH]c1=O | -2.96
33 | O=C1C(=O)N(CC2COc3ccccc3O2)c2ccccc21 (stereo not drawn) | 17.8
34 | N=C1C(=O)OCC1c1ccccc1NC(=O)c1ccc(F)cc1 (stereo not drawn) | 10
35 | O=C(NCCc1cnc[nH]1)c1ccc(-c2ccccc2)cc1 | 5.83
36 | COc1ccccc1NC(=O)CSc1nnc(-c2ccco2)o1 | 8.16
37 | COc1ccc(C(C)=O)cc1COC(=O)CNC(=O)c1ccccc1F | 7.66
38 | COc1ccc(N2CCN(C(=O)CNC(=O)Cn3cnc4sc(C)c(C)c4c3=O)CC2)cc1 | 9.32
39 | Cc1ccc(Cl)cc1NC(=O)C1CC(=O)Nc2ncnn21 (stereo not drawn) | 8.13
40 | Cc1cccc(OCC(=O)Nc2ccccc2N2CCCCC2)c1 | 4.25
41 | CC1(C)CC(=O)C(C(=O)CCCCC(=O)C2C(=O)CC(C)(C)CC2=O)C(=O)C1 | 0.766
42 | CCc1ccccc1NC(=O)CCC(=O)OCC(=O)c1ccc(-c2ccccc2)cc1 | 4.76
43 | CCSc1nnc(-c2ccccc2N)c(=O)[nH]1 | 14.4
44 | COc1ccccc1N1CCN(S(=O)(=O)c2ccccc2)CC1 | -2.04
45 | COc1ccc(NC(=S)N2CCN(C(=O)c3ccccc3)CC2)cc1 | 0.609
46 | COc1ccc(Cl)cc1NC(=O)Nc1ccccc1SC | 10.8

Row | SMILES | hERG current change (%, negative = inhibition) at 1uM [%]
47 | COc1ccc(C2CC(C)=C(C#N)S(=O)(=O)C2C#N)cc1 (stereo not drawn) | 6.79
48 | CCCCON1C(=O)c2cccc3cccc(c23)C1=O | 8.5
49 | CCOCCCNC(=O)CN1C(=O)NC(Cc2c[nH]c3ccccc23)C1=O (stereo not drawn) | 1.59
50 | CCN(CC)S(=O)(=O)c1ccc(NC(=O)Nc2cccc(C(F)(F)F)c2)cc1 | 10.1
51 | O=C(Nc1ccccc1)N1CC2CC(C1)c1cccc(=O)n1C2 (stereo not drawn) | 14.7
52 | O=C(N/N=C/C(Cl)=C/c1ccccc1)c1ccccn1 | 7.13
53 | O=C(Nc1nccs1)c1sc2cc(Cl)ccc2c1Cl | 9.44
54 | Cc1ccc(CN2CCSc3ccc(C(=O)NC4CCCC4)cc32)cc1 | 9.08
55 | CC(=O)NS(=O)(=O)c1cccnc1Nc1ccc(Cl)cc1 | 12
56 | O=C(N/N=C/c1cccc2ccccc12)c1cccnc1 | 2.57
57 | CC(=C/c1ccco1)/C=N/NC(=O)CSc1nnc(SCc2ccc(C)cc2)s1 | 2.07
58 | COc1ccc(NC(=O)COCC(=O)Nc2ccc(C)cc2)cc1 | 5.63
59 | O=C(c1cc(-c2ccncc2)nc2ccc(Br)cc12)N1CCN(Cc2ccc3c(c2)OCO3)CC1 | -11.5
60 | CC(C)CCn1c(CN2CCN(Cc3ccccc3)CC2)nc2c1c(=O)[nH]c(=O)n2C | -2.51
61 | Cc1cc(-c2nnc(CCC(=O)NC(C)(C)C34CC5CC(CC(C5)C3)C4)o2)no1 | 9.18
62 | COc1cc(=O)[nH]c(SC(C)C(=O)Nc2cc(C)on2)n1 (stereo not drawn) | 16.7
63 | COc1ccc(NC(=O)CCn2ccnc2)c(OC)c1 | 9.53
64 | Cl.O=C(O)C1=CCCNC1 | -30.7
65 | O=C(N/N=C/c1ccncc1)C1CC1C(=O)N/N=C/c1ccncc1 (stereo not drawn) | 12.5
66 | CCCS(=O)(=O)c1c(S(=O)(=O)CCC)c2ccc(C(N)=O)cn2c1C(=O)c1ccc(F)cc1 | 6.39
67 | Cn1ncc(C#N)c1NC(=O)c1nn2cccnc2c1Cl | 16.8
68 | COCCCNC(=S)Nc1ccc(OC(F)F)cc1C | 8.72
69 | COCCN(C(=O)c1snc(C(N)=O)c1N)C(C(=O)NC1CCCCC1)c1ccc(OC)c(OC)c1 (stereo not drawn) | 13.9

Row | SMILES | hERG current change (%, negative = inhibition) at 1uM [%]
70 | CC(C)NS(=O)(=O)c1ccc(NC(=S)NC(=O)c2ccc(-c3ccccc3)cc2)cc1 | -2.44
71 | CC(C)C(=O)Nc1ccc(-c2nc3ccccc3c(=O)o2)cc1 | 16.3
72 | COc1ccc(-c2cc(-c3ccccc3)c(C#N)c(SCC(=O)O)n2)cc1 | 11.3
73 | Cc1ccc(F)cc1NC(=O)c1sc2ncn(CC(=O)N3CCN(c4ccccn4)CC3)c(=O)c2c1C | -15
74 | Cc1ccc(C(=O)OCC(=O)NNC(=O)c2ccccc2)c(O)c1 | -6.96
75 | C=CCn1c(O)c(C(CC)=NCCC2=CCCCC2)c(=O)[nH]c1=O | 5.33
76 | COc1cc(-c2nnc(COC(=O)CSCC(=O)Nc3cc(C)on3)o2)cc(OC)c1OC | 7.66
77 | Cc1cc(C)c(S(=O)(=O)c2c(C)cccc2C)c(Cl)n1 | 9
78 | CCCCC(CC)CNC(=O)CCS(=O)(=O)c1cccc2nonc12 (stereo not drawn) | 11.9
79 | CCN(CC)C(=O)C12CC3CC(CC(Br)(C3)C1)C2 | 12.5
80 | Cc1ccccc1OCC(=O)NC(=S)Nc1ccc(Br)c(C)n1 | 10.2
81 | CCN(CC)c1ccc2c(Cl)cc(=O)oc2c1 | 2.38
82 | CCOC(=O)c1cnc(SCC(=O)Nc2ccccc2C(=O)OC)nc1N | -10
83 | CCN(CC)c1ccc(NC(=O)/C=C/c2cc(Br)ccc2OC)cc1 | 8.46
84 | CN(CC(=O)Nc1ccccc1C(F)(F)F)C(=O)CSCc1ccc(Cl)c(Cl)c1 | 5.95
85 | CCOc1ccccc1C(=O)Nc1cccc2cccnc12 | 10.1
86 | CN(C)C(=O)c1ccc(NC(=O)CSc2nnc(-c3cccs3)n2N)cc1 | 8.44
87 | O=C(CN(CCO)c1ccccc1)Nc1cccc(S(=O)(=O)N2CCCC2)c1 | 0.847
88 | CC(C)(/C=N/NC(=O)CSCc1ccc(Cl)cc1)CCC#N | 8.92
89 | COc1ccc(-n2c3c(cc(C(=O)N4CCN(CCO)CC4)c2=O)C(=O)CC(C)(C)C3)cc1 | -2.36
90 | CSc1ccccc1NC(=O)c1ccc(N2CC3CC(C2)c2cccc(=O)n2C3)c(NC(=O)c2cccnc2)c1 (stereo not drawn) | 8.01
